{"source": "PubChem BioAssay AID588591", "about": "(National Center for Advancing Translational Sciences (NCATS), 2011)", "note": "The whole screen tested about 390,000 compounds, of which about 4,700 (1.2%) were called active. This list was built around the results that the source calls inconclusive (neither active nor inactive); the mix of calls is not that of the screen. The call rests on the fitted dose curve; in most records, active means well fitted inhibition curve with a large enough effect; inconclusive means small, poorly fitted or top-dose-only effect, or another doubt; inactive means no such curve, though single readings can be large or run the other way. Potencies beside an inconclusive call are fits to weak or partial responses and may not hold up. Potency means the concentration at half of the fitted maximal effect; tags describe the fitted curve by direction and shape.", "data": [{"biological_target": "DNA polymerase eta (Homo sapiens) (UniProt Q9Y253)", "sequence (Q9Y253 whole entry, looked up)": "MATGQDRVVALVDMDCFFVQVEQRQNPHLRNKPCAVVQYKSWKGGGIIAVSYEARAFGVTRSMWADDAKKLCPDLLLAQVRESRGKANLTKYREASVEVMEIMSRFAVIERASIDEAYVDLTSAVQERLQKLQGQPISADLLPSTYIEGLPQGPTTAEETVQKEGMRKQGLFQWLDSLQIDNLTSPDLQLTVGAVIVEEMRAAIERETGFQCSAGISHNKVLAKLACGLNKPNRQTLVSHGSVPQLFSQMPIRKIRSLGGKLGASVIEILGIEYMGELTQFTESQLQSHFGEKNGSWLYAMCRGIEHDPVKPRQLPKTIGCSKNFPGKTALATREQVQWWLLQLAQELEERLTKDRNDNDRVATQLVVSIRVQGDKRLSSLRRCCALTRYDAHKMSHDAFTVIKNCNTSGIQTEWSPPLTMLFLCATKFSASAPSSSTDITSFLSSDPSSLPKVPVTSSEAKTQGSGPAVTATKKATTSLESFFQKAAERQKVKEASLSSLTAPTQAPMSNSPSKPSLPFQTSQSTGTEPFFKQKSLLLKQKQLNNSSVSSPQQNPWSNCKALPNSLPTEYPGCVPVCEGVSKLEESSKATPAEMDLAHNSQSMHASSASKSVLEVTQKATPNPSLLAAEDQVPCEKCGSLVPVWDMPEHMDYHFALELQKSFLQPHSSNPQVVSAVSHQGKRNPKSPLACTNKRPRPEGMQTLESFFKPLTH", "experiment": "qHTS for Inhibitors of Polymerase Eta", "details": "recombinant Pol eta, fluorescent DNA replication assay; series mostly up to 114 µM", "outline": "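Pol eta (10 nM) was preincubated with compounds for 15 min at room temperature, after which fluorescent replication substrate (50 nM final) was added to start the reaction. Fluorescence was read kinetically at 0 and 10 min.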", "values": [{"smiles": "Cc1ccccc1Cn1c(=O)n(Cc2ccco2)c(=O)c2sc3ccccc3c21", "Potency": "inactive"}, {"smiles": "COC(=O)c1ccccc1NC(=O)C1CC=CCC1C(=O)O", "note": "(stereo not drawn)", "Potency": "inconclusive: 17.8 µM [inhibitor, partial curve, poor fit]"}, {"smiles": "Cn1c(CCCNC(=O)c2ccco2)nc2ccccc21", "Potency": "inconclusive: 20 µM [inhibitor, full curve]"}, {"smiles": "O=C(NCc1ccccn1)c1ccc2c(=O)n3nc(Nc4ccccc4)sc3nc2c1", "Potency": "inconclusive: 20 µM [inhibitor, full curve]"}, {"smiles": "O=C1NN(c2ccccc2)C(=O)/C1=C/c1ccc(-c2ccc(Cl)c(C(=O)O)c2)o1", "Potency": "active: 7.08 µM"}, {"smiles": "Cc1ccc(N2C(=O)[C@@H]3[C@H](C2=O)C2c4ccccc4C=CN2[C@@H]3C(=O)c2ccco2)c(C)c1", "note": "(stereo partly drawn)", "Potency": "active: 28.2 µM"}, {"smiles": "Cc1ccccc1Oc1nc2c(C)cccn2c(=O)c1/C=C(\\C#N)C(=O)Nc1c(C)n(C)n(-c2ccccc2)c1=O", "Potency": "inconclusive: 39.8 µM [inhibitor, single point]"}, {"smiles": "C=CCOc1ccc(C=CC(=O)c2c(O)c(OC)c(OC)c(OC)c2OC)cc1", "Potency": "inconclusive: 25.1 µM [inhibitor, partial curve, poor fit]"}, {"smiles": "Cc1[nH]n(-c2ccccc2)c(=S)c1C=NCCCN=Cc1c(C)[nH]n(-c2ccccc2)c1=S", "Potency": "inconclusive: 50.1 µM [inhibitor, partial curve, poor fit]"}, {"smiles": "c1ccc(-c2ccc3c(c2)c2c4n3CCN=C4CCC2)cc1", "Potency": "inactive"}, {"smiles": "CCOc1ccc(C(=O)N2CCc3cc(OC)c(OC)cc3C2COc2ccc3c(C)cc(=O)oc3c2)cc1OCC", "note": "(stereo not drawn)", "Potency": "inactive"}, {"smiles": "Cc1nnc(SC(=O)N2c3ccccc3Sc3ccccc32)s1", "Potency": "inconclusive: 56.2 µM [inhibitor, partial curve, poor fit]"}, {"smiles": "O=C(Cc1csc(N2CCOCC2)n1)N/N=C/c1ccc(O)c(O)c1O", "Potency": "inconclusive: 3.55 µM [inhibitor, full curve, poor fit]"}, {"smiles": "O=C(Nc1ccc(Oc2cccc3ccccc23)cc1)c1ccco1", "Potency": "inconclusive: 89.1 µM [inhibitor, partial curve, poor fit]"}, {"smiles": "CCc1ccc(-c2n[nH]nc2C2=CC(=O)C[C@H](c3ccc(F)cc3)C2)cc1", "Potency": "inactive"}, {"smiles": "COc1ccc(-n2nc3c(=O)[nH][nH]c3cc2=O)cc1", "Potency": "inconclusive: 50.1 µM [inhibitor, partial curve, poor fit]"}, {"smiles": "CC1CCc2c(sc3nc(SCC(=O)NCc4ccco4)nc(N)c23)C1", "note": "(stereo not drawn)", "Potency": "inconclusive: 28.2 µM [inhibitor, partial curve, poor fit]"}, {"smiles": "Cc1ccc(-n2c(SCC(=O)N3Cc4ccccc4CC3C(=O)O)nnc2-c2cccnc2)c(C)c1", "note": "(stereo not drawn)", "Potency": "inconclusive: 31.6 µM [inhibitor, full curve]"}, {"smiles": "CCOC(=O)c1cc(-c2ccco2)nc2c1c(C)nn2-c1ccccc1", "Potency": "inconclusive: 25.1 µM [inhibitor, partial curve, poor fit]"}, {"smiles": "N#CC(C#N)=NNc1ccc(S(=O)(=O)N2CCCCC2)cc1", "Potency": "inconclusive: 20 µM [inhibitor, full curve, poor fit]"}, {"smiles": "CC/C(=N/Nc1cccc(Cl)c1)c1cnnc(SC)n1", "Potency": "inconclusive: 22.4 µM [inhibitor, partial curve, poor fit]"}, {"smiles": "CCOC(=O)Nc1ccc(C(=O)Oc2ccccc2)c(O)c1", "Potency": "inactive"}, {"smiles": "CC(C)C(NC(=O)c1ccc2c(c1)OCO2)C(=O)N/N=C/c1cccs1", "note": "(stereo not drawn)", "Potency": "inconclusive: 39.8 µM [inhibitor, partial curve, poor fit]"}, {"smiles": "COc1ccc(Cl)cc1C(=O)Nc1nc2ccccc2[nH]1", "Potency": "inactive"}, {"smiles": "Cc1cc(C)n2nc(C(=O)NNC(=O)c3ccccc3)nc2n1", "Potency": "inconclusive: 89.1 µM [inhibitor, partial curve, poor fit]"}, {"smiles": "CCCCN(C(=O)C1CCCC1)C1CCS(=O)(=O)C1", "note": "(stereo not drawn)", "Potency": "inactive"}, {"smiles": "CCNc1nc(NCC)n2c(SCC(=O)Nc3c(C)cccc3C)nnc2n1", "Potency": "inconclusive: 22.4 µM [inhibitor, partial curve]"}, {"smiles": "COc1ccc2c(c1)c1ncn(CCN3CCCCC3)c(=O)c1n2C", "Potency": "inactive"}, {"smiles": "NC(=O)c1c(NC(=O)CN2CCN(S(=O)(=O)c3ccccc3)CC2)sc2c1CCC2", "Potency": "inconclusive: 14.1 µM [inhibitor, full curve]"}, {"smiles": "Cc1c(Br)c(=O)oc2c(Br)c(O)c(O)cc12", "Potency": "active: 3.16 µM"}, {"smiles": "COc1ccc2oc(C(=O)OCC(=O)N3CCN(S(=O)(=O)c4ccccc4)CC3)c(C)c2c1", "Potency": "inconclusive: 31.6 µM [inhibitor, partial curve, poor fit]"}, {"smiles": "O=C(O)c1cccc(-n2c(O)c(C=C3N=c4ccccc4=N3)sc2=S)c1", "Potency": "inconclusive: 56.2 µM [inhibitor, partial curve]"}, {"smiles": "CCOc1ccccc1N1CCN(C(=O)c2cc(-c3cccnc3)nc3c(Cl)cccc23)CC1", "Potency": "inactive"}, {"smiles": "O=C(O)c1ccc(NS(=O)(=O)c2ccc3c(c2)C2C=CCC2C(c2ccccc2F)N3)cc1", "note": "(stereo not drawn)", "Potency": "active: 10 µM"}, {"smiles": "Cc1cc(C(=O)CSc2nnc(-c3ccccc3)n2-c2ccccc2)c(C)n1-c1ncn[nH]1", "Potency": "active: 20 µM"}, {"smiles": "CCOc1ccc(C2c3c(oc4ccc(C)cc4c3=O)C(=O)N2CCCN(C)C)cc1OC", "note": "(stereo not drawn)", "Potency": "inactive"}, {"smiles": "Cc1[nH]c2ccccc2c1C1(O)C(=O)N(Cc2ccccc2)c2ccc(Cl)cc21", "note": "(stereo not drawn)", "Potency": "inactive"}, {"smiles": "CSc1ccc(-c2nc3cccc(C)n3c2Nc2ccc3c(c2)OCO3)cc1", "Potency": "inactive"}, {"smiles": "O=C1CCN(CCc2ccccc2)CCN1[C@H](COc1ccccc1)Cc1ccccc1", "Potency": "inactive"}, {"smiles": "Cc1ccc(C)c(NC(=O)CSc2ccc3nc(-c4ccccc4)cn3n2)c1", "Potency": "inconclusive: 79.4 µM [inhibitor, partial curve]"}, {"smiles": "Cc1ccc(CNc2ccc3nnc(-c4ccccc4)n3n2)cc1", "Potency": "inconclusive: 20 µM [inhibitor, full curve, poor fit]"}, {"smiles": "CCOc1ccc(NC(=O)c2cnc3sc(N4CCOCC4)nn3c2=O)cc1", "Potency": "inactive"}, {"smiles": "Oc1cc2c(cc1O)C1c3ccc(O)c(O)c3OCC1(O)C2", "note": "(stereo not drawn)", "Potency": "active: 7.08 µM"}, {"smiles": "O=C(COC(=O)Cn1cnc2ccccc21)Nc1cc2c(cc1Cl)C(=O)c1ccccc1C2=O", "Potency": "inconclusive: 5.01 µM [inhibitor, partial curve]"}, {"smiles": "Cc1c(C(C)(C)O)[nH]c2ccc(C(F)(F)F)cc12", "Potency": "inconclusive: 44.7 µM [inhibitor, partial curve, poor fit]"}, {"smiles": "COc1ccccc1/C=C1\\SC(=S)N(NS(=O)(=O)c2ccccc2)C1=O", "Potency": "inconclusive: 89.1 µM [inhibitor, single point]"}, {"smiles": "Cn1c(=O)c(C#N)c(-c2ccc(F)cc2)c2cc(C(=O)c3cc(Cl)cc(Cl)c3O)cnc21", "Potency": "active: 39.8 µM"}, {"smiles": "CCN1C(=O)c2ccc(C(=O)Nc3ccc4c(c3)OCO4)cc2C1=O", "Potency": "inconclusive: 2.51 µM [inhibitor, partial curve, poor fit]"}, {"smiles": "Cc1ccc2c(=O)cc(CSc3ncn[nH]3)[nH]c2c1C", "Potency": "inactive"}, {"smiles": "O=C(CNC(=O)c1ccc([N+](=O)[O-])cc1)N/N=C\\c1ccc(OC(=O)c2ccccc2)cc1", "Potency": "inconclusive: 14.1 µM [inhibitor, partial curve, poor fit]"}, {"smiles": "COc1ccc(C(C(=O)NC2CCCCC2)N(C(=O)c2sc(C)nc2C)c2ccc(C(C)=O)cc2)cc1", "note": "(stereo not drawn)", "Potency": "inconclusive: 89.1 µM [inhibitor, single point]"}, {"smiles": "Cc1ccc(-c2n[nH]c(=S)n2/N=C/C=C\\c2ccccc2[N+](=O)[O-])cc1", "Potency": "inconclusive: 15.8 µM [inhibitor, full curve, poor fit]"}, {"smiles": "CCC(=O)Nc1c(S(=O)(=O)c2ccc(C)cc2)c2nc3ccccc3nc2n1C(C)c1ccccc1", "note": "(stereo not drawn)", "Potency": "inconclusive: 0.316 µM [inhibitor, full curve, poor fit]"}, {"smiles": "COC(=O)C1=C(C)NC(=S)NC1c1ccc(-c2cc(Cl)ccc2Cl)o1", "note": "(stereo not drawn)", "Potency": "inactive"}, {"smiles": "O=C(CN1C(=O)C2(SCC(=O)N2c2ccc(F)cc2)c2ccccc21)NC1CCCCC1", "note": "(stereo not drawn)", "Potency": "inactive"}, {"smiles": "Nc1ccc(S(=O)(=O)NCC(=O)OC2CCOC2=O)cc1[N+](=O)[O-]", "note": "(stereo not drawn)", "Potency": "inconclusive: 20 µM [inhibitor, partial curve, poor fit]"}, {"smiles": "COc1ccc(NC(=O)CC2C(=O)OCC3CCCCN32)cc1Cl", "note": "(stereo not drawn)", "Potency": "inconclusive: 22.4 µM [inhibitor, partial curve]"}, {"smiles": "CCCCCOc1ccccc1CN1C(=O)C(=O)c2cc(C)ccc21", "Potency": "inactive"}, {"smiles": "CSCC(=O)N1CCC(n2nccc2NC(=O)c2ccc3c(c2)OCO3)CC1", "Potency": "inactive"}, {"smiles": "CCCCCCCCSc1nnc(-c2ccc(OC)cc2)o1", "Potency": "inconclusive: 50.1 µM [inhibitor, partial curve, poor fit]"}, {"smiles": "CC(OC(=O)c1cccc(-n2cnnn2)c1)C(=O)Nc1ccc(F)c(F)c1F", "note": "(stereo not drawn)", "Potency": "inactive"}, {"smiles": "OCCNc1nc(Nc2ccccc2)nc(Nc2ccccc2)n1", "Potency": "inconclusive: 56.2 µM [inhibitor, partial curve, poor fit]"}, {"smiles": "NS(=O)(=O)c1ccc(-c2ccc(/C=C3\\NC(=S)NC3=O)o2)cc1", "Potency": "active: 79.4 µM"}, {"smiles": "O=C(O)CCc1ccc(-c2ccc(F)cc2)n1CC(=O)O", "Potency": "active: 11.2 µM"}, {"smiles": "CCCCc1cc2c(cn1)=C(OC(=O)c1cnc3ccccc3n1)C(C)(OC(=O)CC)C(=O)C=2", "note": "(stereo not drawn)", "Potency": "inactive"}, {"smiles": "CC1=C(C(=O)N(C)C)CC(CC(=O)NCCCCc2ccccc2)C(=O)N1CCC1=CCCCC1", "note": "(stereo not drawn)", "Potency": "inconclusive: 3.16 µM [inhibitor, partial curve, poor fit]"}, {"smiles": "Clc1cccc(-c2nc3ccccn3c2Nc2ccc3c(c2)OCCO3)c1", "Potency": "inactive"}, {"smiles": "Cc1c(Cl)cnc(NC(=O)COC(=O)c2cccc(S(=O)(=O)N3CCc4ccccc4C3)c2)c1Cl", "Potency": "inconclusive: 14.1 µM [inhibitor, full curve, poor fit]"}]}]}
